Results as given in the supplement of paper PMC6089552.
In all, about 3,200 compounds went through this assay and about 300 (9.4%) showed activity. The entries are a selection whose mix differs from that of the whole data set.

System: A673/TR/shEF
Test: cell viability (LOESS-normalised, relative to median of negative controls) (log2 ratio); higher = more viable cells (less compound effect), active = hit call of the paper (over 3 MAD below the median)
Conditions: treatment time: 72 h
Procedure, shortened: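 A673/TR/shEF Ewing sarcoma cells were plated at 1,500 per well in 384-well plates and cultured with or without doxycycline, added 24 h before compounds, to induce EWS-FLI1 shRNA knockdown. Library compounds at two or more concentrations, alongside DMSO controls, were applied for three days. Cell viability was measured by CellTiter-Glo luminescence on an Envision reader. Readings were LOESS-corrected per plate, divided by the median of negative controls and log2-transformed, and hits were wells lying at least three median absolute deviations from the median of all screened wells.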

[1] = 0.25 µM, library screen: screen1, EWS-FLI1 expression: high (no doxycycline)
[2] = 0.25 µM, library screen: screen1, EWS-FLI1 expression: low (doxycycline-induced shRNA knockdown)
[3] = 2.5 µM, library screen: screen1, EWS-FLI1 expression: high (no doxycycline)
[4] = 2.5 µM, library screen: screen1, EWS-FLI1 expression: low (doxycycline-induced shRNA knockdown)
[5] = 0.25 µM, library screen: screen2, EWS-FLI1 expression: high (no doxycycline)
[6] = 0.25 µM, library screen: screen2, EWS-FLI1 expression: low (doxycycline-induced shRNA knockdown)
[7] = 2.5 µM, library screen: screen2, EWS-FLI1 expression: high (no doxycycline)
[8] = 2.5 µM, library screen: screen2, EWS-FLI1 expression: low (doxycycline-induced shRNA knockdown)
[9] = 0.103 µM, library screen: screen3, EWS-FLI1 expression: high (no doxycycline)
[10] = 0.103 µM, library screen: screen3, EWS-FLI1 expression: low (doxycycline-induced shRNA knockdown)
[11] = 0.308 µM, library screen: screen3, EWS-FLI1 expression: high (no doxycycline)
[12] = 0.308 µM, library screen: screen3, EWS-FLI1 expression: low (doxycycline-induced shRNA knockdown)
[13] = 0.926 µM, library screen: screen3, EWS-FLI1 expression: high (no doxycycline)
[14] = 0.926 µM, library screen: screen3, EWS-FLI1 expression: low (doxycycline-induced shRNA knockdown)
[15] = 2.8 µM, library screen: screen3, EWS-FLI1 expression: high (no doxycycline)
[16] = 2.8 µM, library screen: screen3, EWS-FLI1 expression: low (doxycycline-induced shRNA knockdown)
[17] = 8.3 µM, library screen: screen3, EWS-FLI1 expression: high (no doxycycline)
[18] = 8.3 µM, library screen: screen3, EWS-FLI1 expression: low (doxycycline-induced shRNA knockdown)
[19] = 25 µM, library screen: screen3, EWS-FLI1 expression: high (no doxycycline)
[20] = 25 µM, library screen: screen3, EWS-FLI1 expression: low (doxycycline-induced shRNA knockdown)

Measured: cell viability (log2)

CC(C)c1cc2c(c(O)c1O)[C@@]1(C(=O)O)CCCC(C)(C)[C@@H]1CC2
inactive: [1] 0.0242 | [2] 0.0347 | [3] 0.115 | [4] 0.191

CC(=O)O[C@H]1C[C@@H](OC(C)=O)C(C)(C)C2C[C@@H](OC(C)=O)[C@]3(C)C(CC[C@@]4(C)[C@H](c5ccoc5)C[C@H]5O[C@]543)[C@]21C (some centres not stated)
inactive: [1] 0.134 | [2] 0.0408 | [3] 0.129 | [4] 0.147

Cc1nc(-c2ccc(-c3ccc(C(=O)N4CCc5cc6c(cc54)C4(CCN(C)CC4)CO6)cc3)c(C)c2)no1
inactive: [5] 0.157 | [6] 0.0314 | [7] 0.127 | [8] 0.0502

S=C=NCc1ccccc1
inactive: [1] 0.0421 | [2] 0.0817 | [3] 0.0546 | [4] 0.123

C[C@H]1CC[C@]2(NC1)O[C@H]1C[C@H]3[C@@H]4CC[C@H]5C[C@@H](O)CC[C@]5(C)[C@H]4CC[C@]3(C)[C@H]1[C@@H]2C
inactive: [1] 0.0391 | [2] 1.7e-05 | [3] 0.161 | [4] 0.0669

COP(=O)(OC)OC=C(Cl)Cl
inactive: [1] 0.059 | [2] 0.0393 | [3] 0.104 | [4] 0.00932

CN1CC[C@]2(CCN3CCc4c(oc5ccccc45)[C@@H]3C2)N(C)C1=O
inactive: [5] 0.195 | [6] 0.0926 | [7] 0.114 | [8] 0.114

N#CC(C#N)=Cc1ccc(O)c(O)c1
inactive: 0.025 µM, library screen: screen1, EWS-FLI1 expression: high (no doxycycline) 0.0488 | 0.025 µM, library screen: screen1, EWS-FLI1 expression: low (doxycycline-induced shRNA knockdown) -0.0484 | [1] 0.042 | [2] -0.0954 | [5] 0.172 | [6] 0.124 | [3] 0.0531 | [4] -0.000697 | [7] 0.143 | [8] 0.061 | 25 µM, library screen: screen1, EWS-FLI1 expression: high (no doxycycline) -0.0656 | 25 µM, library screen: screen1, EWS-FLI1 expression: low (doxycycline-induced shRNA knockdown) 0.016

Nc1ncnc2c1ncn2[C@@H]1O[C@H](COP(=O)(O)CP(=O)(O)OP(=O)([O-])[O-])[C@H](O)C1O.[Li+].[Li+] (some centres not stated)
inactive: [5] 0.132 | [6] 0.0925 | [7] 0.106 | [8] 0.143

CO[C@H]1C[C@H](O[C@H]2CC[C@@]3(C)[C@H](CC[C@@H]4[C@@H]3CC[C@]3(C)[C@@H](C5=CC(=O)OC5)[C@@H](OC(C)=O)C[C@]43O)C2)O[C@@H](C)[C@@H]1O
active: [1] -0.578 | [2] -1.73 | [3] -3.54 | [4] -4.25

COc1ccc2[nH]c3c(c2c1)CCNC3
inactive: [5] 0.0618 | [6] 0.101 | [7] 0.067 | [8] 0.0895

CO[C@H]1[C@H](O)[C@H](O[C@H]2CC[C@@]3(C=O)[C@H](CC[C@@H]4[C@@H]3CC[C@]3(C)[C@@H](C5=CC(=O)OC5)CC[C@]43O)C2)O[C@@H](C)[C@@H]1O
active: [1] -3.17 | [2] -3.22 | [3] -3.52 | [4] -4.22

Cc1cccc(C)c1NC(=O)CN1CCCC1=O
inactive: [9] 0.119 | [10] -0.000586 | [11] 0.107 | [12] 0.118 | [13] 0.135 | [14] 0.0891 | [15] 0.156 | [16] 0.0751 | [17] 0.15 | [18] 0.0489 | [19] 0.154 | [20] 0.0876

NC(=O)CI
inactive: [5] 0.186 | [6] 0.0745 | [7] -0.0247 | [8] 0.0697

C[C@@H]1O[C@H](C[N+](C)(C)C)C[C@H]1O
inactive: [5] 0.143 | [6] 0.0741 | [7] 0.116 | [8] -0.0161

CP(=O)(O)C1=CCNCC1
inactive: [5] 0.234 | [6] 0.0656 | [7] 0.15 | [8] 0.0635

Cn1cc(C2=C(c3cn(C4CCN(Cc5ccccn5)CC4)c4ccccc34)C(=O)NC2=O)c2ccccc21
inactive: [9] -0.105 | [10] -0.0101 | [11] -0.0168 | [12] 0.054 | [13] -0.0718 | [14] 0.0485 | [15] -0.024 | [16] -0.0681 | [17] 0.0419 | [18] 0.0589 | [19] -0.03 | [20] 0.0493

NC(=O)c1cc(N2CC2)c([N+](=O)[O-])cc1[N+](=O)[O-]
inactive: [5] 0.145 | [6] 0.126 | [7] 0.011 | [8] 0.0989

C=CCN1CC[C@]23c4c5ccc(O)c4O[C@H]2C(=O)CC[C@@]3(O)[C@H]1C5
inactive: [1] 0.125 | [2] 0.0831 | [5] 0.177 | [6] 0.0872 | [3] 0.148 | [4] 0.105 | [7] 0.0889 | [8] 0.129

Cc1ccc2cc3c(ccc4ccccc43)c3c2c1CC3
inactive: [1] 0.0577 | [2] -0.00243 | [3] 0.111 | [4] 0.12

C[C@@H]1C(=O)O[C@H]2[C@H]1CC[C@@]1(C)C=CC(=O)[C@@]3(C)O[C@@]213
inactive: [1] -0.0341 | [2] 0.0137 | [3] 0.0354 | [4] 0.0553

CC[C@@H](C)C(=O)O[C@H]1[C@H](O)[C@H]2[C@@H](CN3C[C@@H](C)CC[C@H]3[C@@]2(C)O)[C@@H]2C[C@]34O[C@]5(O)[C@@H](OC(=O)[C@@](C)(O)[C@@H](C)O)CC[C@@]3(C)[C@@H]5[C@@H](OC(C)=O)[C@@H](OC(C)=O)[C@H]4[C@@]21O
inactive: [1] 0.0432 | [2] 0.0125 | [3] 0.068 | [4] 0.0811

C=CCN1CCC23c4c5ccc(O)c4O[C@@H]2/C(=N/NC(=O)c2ccccc2)CCC3(O)[C@H]1C5 (some centres not stated)
inactive: [5] 0.0804 | [6] 0.0684 | [7] 0.0878 | [8] 0.0887

CCCC(C)C1(CC)C(=O)NC(=O)NC1=O (configuration not stated)
inactive: [1] 0.0325 | [2] 0.0542 | [3] 0.0314 | [4] 0.0176

C=CCc1ccc2c(c1)OCO2
inactive: [1] 0.0124 | [2] 0.0225 | [3] 0.144 | [4] 0.0477

CCNc1nc(Cl)nc(NC(C)C)n1
inactive: [1] 0.143 | [2] 0.0518 | [3] 0.132 | [4] 0.0856

S=C=Nc1cccc(C2(N3CCCCC3)CCCCC2)c1
inactive: [5] 0.168 | [6] 0.105 | [7] 0.16 | [8] 0.118

CNC(=O)CSP(=S)(OC)OC
inactive: [1] 0.102 | [2] 0.0684 | [3] 0.15 | [4] 0.0982

CC(=O)O[C@H]1C[C@@H]2CC[C@@H]3[C@H](CC[C@@]4(C)[C@H]3C[C@H]([N+]3(C)CCCCC3)[C@@H]4OC(C)=O)[C@@]2(C)C[C@@H]1[N+]1(C)CCCCC1
inactive: [9] 0.0285 | [10] 0.0357 | [5] 0.133 | [6] 0.105 | [11] 0.115 | [12] 0.051 | [13] 0.183 | [14] 0.0779 | [7] 0.145 | [8] 0.0752 | [15] 0.112 | [16] 0.0286 | [17] 0.106 | [18] 0.0203 | [19] 0.16 | [20] 0.0865

C[C@]12CC[C@H](O)C[C@H]1CC[C@@H]1[C@@H]2CC[C@]2(C)[C@@H](C3=CC(=O)OC3)[C@@H](O)C[C@]12O
inactive: [1] 0.0825 | [2] 0.115 | [3] 0.137 | [4] 0.0999

C[C@]12CCC(=O)C[C@@H]1CC[C@@H]1[C@@H]2CC[C@]2(C)C(=O)CC[C@@H]12
inactive: [1] 0.077 | [2] 0.117 | [3] 0.123 | [4] 0.0635

CN1CCc2cccc(Cl)c2CC1
inactive: [5] 0.121 | [6] 0.0417 | [7] 0.207 | [8] 0.058

NC(CCCCCP(=O)(O)O)C(=O)O (configuration not stated)
inactive: [5] 0.0556 | [6] 0.14 | [7] 0.136 | [8] 0.152

COc1cc2c(cc1O)CCNC2C (configuration not stated)
inactive: [1] -0.0405 | [2] -0.0233 | [3] 0.0226 | [4] 0.0664

COc1ccc2[nH]cc(CCN(C)C)c2c1
inactive: [5] 0.123 | [6] 0.116 | [7] 0.141 | [8] 0.0987

NCC(O)c1ccc(O)cc1 (configuration not stated)
inactive: [1] 0.208 | [2] 0.108 | [5] 0.0858 | [6] 0.0915 | [3] 0.142 | [4] 0.103 | [7] 0.0525 | [8] -0.0117

COC(=O)N1CCN(C(=O)Cc2ccc(Cl)c(Cl)c2)C(CN2CCCC2)C1 (configuration not stated)
inactive: [5] 0.113 | [6] 0.0667 | [7] 0.119 | [8] 0.106

CC(C)NC(C)Cc1ccc(I)cc1 (configuration not stated)
inactive: [5] 0.0787 | [6] 0.0338 | [7] 0.129 | [8] 0.0526

COP(=O)(NC(C)=O)SC (configuration not stated)
inactive: [1] -0.0123 | [2] -0.0415 | [3] 0.154 | [4] -0.0324

CCCN(CCC)C1Cc2cc(OC)c(OC)cc2C1
inactive: [5] 0.175 | [6] 0.0422 | [7] 0.111 | [8] 0.0467

O=c1c2ccccc2[se]n1-c1ccccc1
inactive: [1] 0.0739 | [2] -0.108 | [5] 0.129 | [6] 0.0598 | [3] 0.127 | [4] 0.00216 | [7] 0.153 | [8] -0.000469
